Laboratory results: PubChem BioAssay AID624173 (National Center for Advancing Translational Sciences (NCATS), 2012)
Several values for one entry are separate records, joined by “and”; a condition that tells them apart may be missing. Identical values can stand only once. The whole screen tested about 410,000 compounds, of which about 490 (0.12%) were called active. Inconclusive results, whose numbers are uncertain, are shown with a selection of clear calls. Calls come from the whole dose curve; as a rule, active = well fitted inhibition curve with a large enough effect; inconclusive = small, poorly fitted or top-dose-only effect; inactive = flat fitted curve, though single readings scatter. Potencies beside an inconclusive call are fits to weak or partial responses and may not hold up.
% is set by controls: 0 for no effect and ±100 for the full control effect; potency is the fitted concentration of half-maximal effect; tags give direction and shape of the fitted curve.
Note: nearly all actives have a fitted effect of over 50% in size.

These compounds were tested against pyruvate kinase (Trypanosoma brucei) (UniProt Q57TT1) (assay: qHTS of Trypanosoma Brucei Inhibitors). Settings: TbPYK enzyme, Kinase-Glo Plus ATP luminescence, 45 min; series mostly up to 76.8 µM.
How it was run: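 Assay buffer: 50 mM TEA pH 7.2, 100 mM KCl, 10 mM MgCl2, 0.05% BSA, 0.01% Tween-20. Pyruvate kinase from T. brucei plus substrate met compound, then ADP (130 uM final). Luminescence was read post 45 min RT.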
For `C[C@@H]1CN([C@@H](C)CO)C(=O)c2cc(N(C)C)ccc2O[C@@H](C)CCCCO[C@@H]1CN(C)S(=O)(=O)c1cccs1`, the Potency was inconclusive: 35.5 µM [inhibitor, partial curve, poor fit]. For `CCOC(=O)c1ccc(NC(=O)CN(C)S(=O)(=O)c2ccc(Br)s2)cc1`, the Potency was “inactive”. With `O=C(NCc1ccccc1)c1cc2ccc(O)cc2oc1=O` the Potency was inconclusive: 28.2 µM [inhibitor, partial curve, poor fit]. In the case of `CCc1ccccc1NC(=O)c1ccc(F)c(S(=O)(=O)N2CCN(c3ccccc3OC)CC2)c1`, the Potency is reported as “inactive”. `O=C(Nc1ccc(C(=O)N2CCCC2)cc1)c1ccccc1F` was tested, and the Potency was inconclusive: 28.2 µM [inhibitor, partial curve]. In the case of `COc1cc([C@@H]2Nc3c(F)cccc3[C@@H]3C=CC[C@@H]32)cc(Br)c1OC`, the Potency is reported as inconclusive: 50.1 µM [inhibitor, single point]. In the case of `CCCC(C)(C)C(=O)N1CCC1(C)C(=O)Nc1ccc2c(c1)OCCO2` (configuration not stated), the Potency is reported as “inactive”. For `CCN1CCN(C(=S)c2ccc([N+](=O)[O-])cc2)CC1`, the Potency was inconclusive: 22.4 µM [inhibitor, partial curve, poor fit]. With `NS(=O)(=O)c1ccc(CCNC(=O)c2cc(-c3ccco3)nc3ccccc23)cc1` the Potency was inconclusive: 28.2 µM [inhibitor, single point]. For `CCOC(=O)c1cc(-c2ccc(C)cc2)n(CCC(=O)NCCc2ccc(C)cc2)c1C`, the Potency was “inactive”. `CCCOC(=S)NC(=O)c1sc2ccccc2c1Cl` was tested, and the Potency was “inactive”. For `O=C(NCc1ccco1)c1cnn2c1NC(c1ccc(Br)cc1)CC2C(F)(F)F` (configuration not stated), the Potency was inconclusive: 20 µM [inhibitor, partial curve, poor fit]. For `Nc1ccc2c(c1)C(=O)C(=O)c1ccccc1-2`, the Potency was inconclusive: 39.8 µM [inhibitor, partial curve]. In the case of `N/C(=N\OC(=O)c1ccccc1)c1ccccn1`, the Potency is reported as inconclusive: 15.8 µM [inhibitor, partial curve, poor fit]. `CN(C)c1ccc(N=c2sc3ccccc3n2C)cc1` was tested, and the Potency was inconclusive: 3.16 µM [inhibitor, partial curve, poor fit]. In the case of `S=c1[nH]nc(COc2ccccc2)n1-c1ccc(Cl)cc1`, the Potency is reported as inconclusive: 14.1 µM [inhibitor, partial curve, poor fit]. `Cc1ccc2[nH]c(=O)c(CN(CCc3ccccc3)C(c3nnnn3Cc3ccco3)C(C)C)cc2c1` (configuration not stated) was tested, and the Potency was “inactive”. With `CCOC(=O)CC(=O)COc1nc2cc3c(nc2o1)CCCC3` the Potency was inconclusive: 31.6 µM [inhibitor, partial curve]. In the case of `CC(C)COc1ccc(Cc2c(O)[nH]c(=S)[nH]c2=O)cc1`, the Potency is reported as inconclusive: 20 µM [inhibitor, partial curve]. In the case of `S=c1nc(C2COc3ccccc3O2)[nH][nH]1` (configuration not stated), the Potency is reported as inconclusive: 28.2 µM [inhibitor, partial curve, poor fit]. For `Cc1ccc(CCNC(=O)CNC(=O)c2cccs2)cc1`, the Potency was “inactive”. `O=C(NCc1cccs1)c1cc(C2CC2)on1` was tested, and the Potency was “inactive”. `COc1ccc(CN2C(=O)NC3(CCCCCC3)C2=O)cc1F` was tested, and the Potency was inconclusive: 50.1 µM [inhibitor, single point]. `C/C(N)=C(/C#N)C(=O)COC(=O)c1cc(C)n(-c2ccc(F)cc2)c1C` was tested, and the Potency was “inactive”. For `Cc1cc(-c2csc(NC(=O)c3ccc(=O)n(C)n3)n2)c(C)n1CC1CCCO1` (configuration not stated), the Potency was inconclusive: 35.5 µM [inhibitor, partial curve, poor fit]. With `Cc1cn(C)c(CC(=O)Nc2cccc(Cl)c2C)c1C(=O)O` the Potency was “inactive”. For `Oc1[nH]c(=S)sc1C=C1N=c2ccccc2=N1`, the Potency was inconclusive: 35.5 µM [inhibitor, partial curve]. For `S=c1[nH]nc(-c2cccc3ccccc23)n1-c1cccnc1`, the Potency was inconclusive: 8.91 µM [inhibitor, partial curve]. `COc1ccccc1N(C(C)=O)C1=C(Cl)C(=O)c2ccccc2C1=O` was tested, and the Potency was inconclusive: 1 µM [inhibitor, full curve]. In the case of `Cc1c(-c2n[nH]c(=S)n2-c2ccc(C(F)(F)F)cc2)nnn1-c1ccccc1`, the Potency is reported as inconclusive: 2.82 µM [inhibitor, full curve, poor fit]. With `COc1ccc(NC(=O)c2sc3nc(N4CCOCC4)c4c(c3c2N)CC(C)(C)OC4)c(OC)c1` the Potency was inconclusive: 25.1 µM [inhibitor, partial curve, poor fit]. In the case of `CSc1nc(-c2ccc(Cl)cc2)c(C#N)c(=O)[nH]1`, the Potency is reported as “inactive”. `O=C(CCCCn1c(=S)[nH]c2ccsc2c1=O)NCc1ccco1` was tested, and the Potency was inconclusive: 25.1 µM [inhibitor, partial curve]. With `Cc1ccc(CCNC(=O)C2CCCN(C(=O)c3cc4sccc4n3C)C2)cc1` (configuration not stated) the Potency was active: 8.91 µM. In the case of `O=C(Nc1ccccc1SC(=O)c1ccccc1)c1ccccc1`, the Potency is reported as inconclusive: 15.8 µM [inhibitor, partial curve, poor fit]. In the case of `Cc1c(Cl)cccc1NC(CC(=O)c1ccccc1)C(=O)O` (configuration not stated), the Potency is reported as inconclusive: 25.1 µM [inhibitor, partial curve, poor fit]. In the case of `Cc1ccc(N=c2c([N+](=O)[O-])nn(-c3ccc(Cl)cc3)n2O)cc1C`, the Potency is reported as “inactive”. `COc1ccc(OC)c(NC(=O)c2c(NCc3ccc(C)o3)sc3c2CCC(C)C3)c1` (configuration not stated) was tested, and the Potency was inconclusive: 20 µM [inhibitor, partial curve]. `Nc1c(C(=O)Nc2ccccc2)sc2nc3c(c(-c4ccco4)c12)CCC3` was tested, and the Potency was inconclusive: 31.6 µM [inhibitor, partial curve, poor fit]. With `COc1cc(/C=C2\SC(c3ccc(C)cc3)=NC2=O)ccc1O` the Potency was inconclusive: 17.8 µM [inhibitor, partial curve, poor fit]. `CCN(Cc1ccccc1)C(=O)Cn1c(=O)n(Cc2ccccc2)c(=O)c2c1c1cc(OC)ccc1n2C` was tested, and the Potency was “inactive”. For `CCOC(=O)c1cc(-c2ccccc2)sc1NC(=O)c1ccc(OC)c(OC)c1`, the Potency was inconclusive: 14.1 µM [inhibitor, partial curve]. With `Cc1cc(C)n(-c2cc(-c3ccccc3)nc(C)n2)n1` the Potency was inconclusive: 5.62 µM [inhibitor, partial curve, poor fit]. In the case of `Fc1ccc(-c2nnc(NC3=NCCCCC3)o2)cc1`, the Potency is reported as inconclusive: 39.8 µM [inhibitor, partial curve, poor fit]. With `CCOC(=O)COc1ccc2c(C)c(CCN(CC)CC)c(=O)oc2c1` the Potency was “inactive”. For `Cn1c(SCC(=O)c2cc3ccccc3o2)nnc1-c1ccccc1`, the Potency was inconclusive: 25.1 µM [inhibitor, partial curve]. For `Fc1ccc(-n2c(CN3CCCCC3)n[nH]c2=S)cc1`, the Potency was inconclusive: 35.5 µM [inhibitor, partial curve, poor fit]. For `Cn1c(/C(C#N)=C(\O)c2cccc(F)c2)nc2ccccc21`, the Potency was “inactive”. For `COc1ccc(C(=O)N/N=C/c2cc3ccccc3[nH]c2=S)cc1`, the Potency was inconclusive: 6.31 µM [inhibitor, full curve]. In the case of `CC(C)Cn1c(-c2ccco2)n[nH]c1=S`, the Potency is reported as inconclusive: 11.2 µM [inhibitor, partial curve]. `CC(C)CCNC(=O)C1(C)CCN1Cc1ccc2ccccc2c1` (configuration not stated) was tested, and the Potency was “inactive”. With `CC1=CC(C)(C)Nc2ccc(OC(=O)CN3C(=O)c4cccc5cccc(c45)C3=O)cc21` the Potency was inconclusive: 25.1 µM [inhibitor, partial curve, poor fit]. With `O=C(Oc1cccc2cccnc12)c1cccc(N2C(=O)C3C4CCC(C4)C3C2=O)c1` (configuration not stated) the Potency was inconclusive: 2 µM [inhibitor, full curve, poor fit]. For `CC(C)(C)c1ccc(O)c(O)c1`, the Potency was inconclusive: 11.2 µM [inhibitor, partial curve, poor fit] and inconclusive: 28.2 µM [inhibitor, partial curve]. For `O=C(CC1CCCC1)Nc1ccc(Cl)c(S(=O)(=O)N2CCOCC2)c1`, the Potency was “inactive”. In the case of `C[C@@](Cc1ccc(O)c(O)c1)(NN)C(=O)O`, the Potency is reported as inconclusive: 14.1 µM [inhibitor, partial curve]. With `Cc1ccc(C)c(NC(=O)c2ccccc2O)c1` the Potency was inconclusive: 50.1 µM [inhibitor, single point]. In the case of `COc1ccc(S(=O)(=O)N(C)C[C@H]2OCCCC[C@@H](C)Oc3ccc(N(C)C)cc3C(=O)N([C@H](C)CO)C[C@@H]2C)cc1`, the Potency is reported as inconclusive: 8.91 µM [inhibitor, partial curve]. With `COc1ccccc1/C=C/C=N/n1c(-c2ccccn2)n[nH]c1=S` the Potency was inconclusive: 2.51 µM [inhibitor, full curve]. In the case of `CN(C)S(=O)(=O)c1cccc(NC(=S)NC(=O)C2CCCCC2)c1`, the Potency is reported as “inactive”. With `CCOc1ccc(CCN2C(=O)c3cccnc3C2=O)cc1OCC` the Potency was inconclusive: 0.891 µM [inhibitor, full curve]. In the case of `Cc1ccc(N2C(=O)NC(=O)/C(=C\c3ccc(N4CCOCC4)cc3)C2=O)cc1`, the Potency is reported as inconclusive: 39.8 µM [inhibitor, single point]. With `CCCN(CCC)C(=O)CSc1nnc2cc(C)c3cc(C)cc(C)c3n12` the Potency was inconclusive: 15.8 µM [inhibitor, partial curve]. `CN(C)S(=O)(=O)Oc1cc(Cl)ccc1C(=O)Nc1ccc(F)cc1F` was tested, and the Potency was “inactive”. For `COC(=O)c1ccccc1NC(=O)Cn1cc(S(=O)(=O)Cc2ccccc2F)c2ccccc21`, the activity, negative = inhibition was inactive: -14.1% [at 15.4 µM]. With `Cc1ccc(OC(=O)CSc2nnc(-c3ccc4c(c3)OCO4)o2)c(C)c1` the Potency was “inactive”. `O=C(CNS(=O)(=O)c1c(Cl)cccc1Cl)OCc1csc(-c2ccccc2)n1` was tested, and the Potency was “inactive”.
